{
  "source": "the supplement of paper PMC12217912",
  "parents": {"B1": {"name": "TEV protease; numbered along this chain (parent)", "chain": "MGESLFKGPRDYNPISSSICHLTNESDGHTTSLYGIGFGPFIITNKHLFRRNNGTLVVQSLHGVFKVKDTTTLQQHLVDGRDMIIIRMPKDFPPFPQKLKFREPQREERICLVTTNFQTKSMSSMVSDTSCTFPSGDGIFWKHWIQTKDGQCGSPLVSTRDGFIVGIHSASNFTNTNNYFTSVPKNFMELLTNQEAQQWVSGWRLNADSVLWGGHKVFMVKPEEPFQPVKEATQL"}},
  "variants_of": "B1",
  "test": "raw area under fraction-flipped curve 0-4 h after induction (AUC4h, not background-subtracted), DNA-recorder readout of cleavage of the substrate (dimensionless); higher = more cleavage of the substrate by the protease variant",
  "conditions": "temperature: 34 °C; time window: 0-4 h after rhamnose induction",
  "note": "Some of the results follow. Sequences were assembled here from the parent chain. Inactive controls read about 0.05.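 Note: Bxb1 expression induced with 0.2% (w/v) L-rhamnose at OD600 near 0.5, cultures sampled hourly, flipped fraction per protease–substrate barcode pair counted by paired-end Illumina sequencing.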",
  "data": [
    {"variant": "MGESLFKGPRDYNPISSSICHLTNESDGHTTSLYGIGFGPFIITNKHLFRRNNGTLVVQSLHGVFKVKDTTTLQQHLVDGRDMIIIRMPKDFPPWPQKLKFREPQREERICLVTTNFQTKSMSSMVSDTSCTFPSGDGIFWKHWIQTKDGQCGSPLVSTRDGFIVGIHSASNFTNTNNYFTSVPKNFMELLTNQEAQQWVSGWRLNADSVLWGGHKVFMVKPEEPFQPVKEATQL", "note": "[F95W]", "values": [
      {"measurement": "area with substrate ENLDFQS", "result": 0.0849},
      {"measurement": "area with substrate ENLEFQS", "result": 0.0569},
      {"measurement": "area with substrate ENLFFQS", "result": 0.0999},
      {"measurement": "area with substrate ENLGFQS", "result": 0.0554},
      {"measurement": "area with substrate ENLHFQS", "result": 0.0797},
      {"measurement": "area with substrate ENLKFQS", "result": 0.0737},
      {"measurement": "area with substrate ENLLFQS", "result": 0.0785},
      {"measurement": "area with substrate ENLNFQS", "result": 0.0622},
      {"measurement": "area with substrate ENLPFQS", "result": 0.0581},
      {"measurement": "area with substrate ENLQFQS", "result": 0.0617},
      {"measurement": "area with substrate ENLTFQS", "result": 0.0662}
    ]},
    {"variant": "MGESLFKGPRDYNPISSSICHLTNESDGHTTSLYGIGFGPFIITNKHLFRRNNGTLVVQSLHGVFKMKDTTTLQQHLVDGRDMIIIRMPKDFPPFPQKLKFREPQREERICLVTTNFQTKSMSSMVSDTSCTFPSGDGIFWKHWIQTKDGQCGSPLVSTRDGFIVGIHSASNFTNTNNYFTSVPKNFMELLTNQEAQQWVSGWRLNADSVLWGGHKVFMVKPEEPFQPVKEATQL", "note": "[V67M]", "values": [
      {"measurement": "area with substrate ENLDFQS", "result": 0.0531},
      {"measurement": "area with substrate ENLEFQS", "result": 0.0489},
      {"measurement": "area with substrate ENLFFQS", "result": 0.0686},
      {"measurement": "area with substrate ENLGFQS", "result": 0.068},
      {"measurement": "area with substrate ENLIFQS", "result": 0.0791},
      {"measurement": "area with substrate ENLKFQS", "result": 0.068},
      {"measurement": "area with substrate ENLMFQS", "result": 0.0793},
      {"measurement": "area with substrate ENLNFQS", "result": 0.0695},
      {"measurement": "area with substrate ENLPFQS", "result": 0.0883},
      {"measurement": "area with substrate ENLRFQS", "result": 0.078}
    ]},
    {"variant": "MGESLFKGPRDYNPISSSICHLTNESDGHTTSLYGIGFGPFIITNKHLFRRNNGTLVVQSLHGVFKVKDTTTLQQHLVDGRDMIIIRMPKDFPPFPQELKFREPQREERICLVTTNFQTKSMSSMVSDTSCTFPSGDGIFWKHWIQTKDGQCGSPLVSTRDGFIVGIHSASNFTNTNNYFTSVPKNFMELLTNQEAQQWVSGWRLNADSVLWGGHKVFMVKPEEPFQPVKEATQL", "note": "[K98E]", "values": [
      {"measurement": "area with substrate ENLDFQS", "result": 0.0776},
      {"measurement": "area with substrate ENLFFQS", "result": 0.119},
      {"measurement": "area with substrate ENLIFQS", "result": 0.0746},
      {"measurement": "area with substrate ENLLFQS", "result": 0.0792},
      {"measurement": "area with substrate ENLNFQS", "result": 0.0852},
      {"measurement": "area with substrate ENLPFQS", "result": 0.0721},
      {"measurement": "area with substrate ENLRFQS", "result": 0.0624},
      {"measurement": "area with substrate ENLSFQS", "result": 0.0571}
    ]},
    {"variant": "MGESLFKGPRDYNPISSSICHLTNESDGHTTSLYGIGFGPFIITNKHLFRRHNGTLVVQSLHGVFKVKDTTTLQQHLVDGRDMIIIRMPKDFPPFPQKLKFREPQREERICLVTTNFQTKSMSSMVSDTSCTFPSGDGIFWKHWIQTKDGQCGSPLVSTRDGFIVGIHSASNFTNTNNYFTSVPKNFMELLTNQEAQQWVSGWRLNADSVLWGGHKVFMVKPEEPFQPVKEATQL", "note": "[N52H]", "values": [
      {"measurement": "area with substrate ENLDFQS", "result": 0.0676},
      {"measurement": "area with substrate ENLEFQS", "result": 0.0691},
      {"measurement": "area with substrate ENLFFQS", "result": 0.0659},
      {"measurement": "area with substrate ENLGFQS", "result": 0.0597},
      {"measurement": "area with substrate ENLLFQS", "result": 0.0641},
      {"measurement": "area with substrate ENLMFQS", "result": 0.0587},
      {"measurement": "area with substrate ENLNFQS", "result": 0.0684},
      {"measurement": "area with substrate ENLRFQS", "result": 0.0651},
      {"measurement": "area with substrate ENLVFQS", "result": 0.0971}
    ]},
    {"variant": "MGESLFKGPRDYNPISSSICHLTNESDGHTTSLYGIGFGPFIITNKHLFRRNNGTLVVQSLHGVFKVKDTTTLQQHLVDGRDMIIIRMPKDFPPFPQKLKFREPQREERICLVTTNFQTKSMSSKVSDTSCTFPSGDGIFWKHWIQTKDGQCGSPLVSTRDGFIVGIHSASNFTNTNNYFTSVPKNFMELLTNQEAQQWVSGWRLNADSVLWGGHKVFMVKPEEPFQPVKEATQL", "note": "[M125K]", "values": [
      {"measurement": "area with substrate ENLDFQS", "result": 0.0422},
      {"measurement": "area with substrate ENLFFQS", "result": 0.0925},
      {"measurement": "area with substrate ENLKFQS", "result": 0.0718},
      {"measurement": "area with substrate ENLLFQS", "result": 0.0623},
      {"measurement": "area with substrate ENLMFQS", "result": 0.0359},
      {"measurement": "area with substrate ENLNFQS", "result": 0.0495},
      {"measurement": "area with substrate ENLPFQS", "result": 0.0644},
      {"measurement": "area with substrate ENLSFQS", "result": 0.0261},
      {"measurement": "area with substrate ENLWFQS", "result": 0.0692}
    ]},
    {"variant": "MGESLFKGPRDYNPISSSICHLTNESDGHTTSLYGIGFGPFIITNKHLFRRNNGTLVVQSLHGVFKVKDTTTLQQHLVDGLDMIIIRMPKDFPPFPQKLKFREPQREERICLVTTNFQTKSMSSMVSDTSCTFPSGDGIFWKHWIQTKDGQCGSPLVSTRDGFIVGIHSASNFTNTNNYFTSVPKNFMELLTNQEAQQWVSGWRLNADSVLWGGHKVFMVKPEEPFQPVKEATQL", "note": "[R81L]", "values": [
      {"measurement": "area with substrate ENLDFQS", "result": 0.0486},
      {"measurement": "area with substrate ENLEFQS", "result": 0.0667},
      {"measurement": "area with substrate ENLFFQS", "result": 0.0828},
      {"measurement": "area with substrate ENLGFQS", "result": 0.0703},
      {"measurement": "area with substrate ENLHFQS", "result": 0.0707},
      {"measurement": "area with substrate ENLKFQS", "result": 0.0718},
      {"measurement": "area with substrate ENLNFQS", "result": 0.0685},
      {"measurement": "area with substrate ENLRFQS", "result": 0.0638},
      {"measurement": "area with substrate ENLVFQS", "result": 0.0727},
      {"measurement": "area with substrate ENLWFQS", "result": 0.0298}
    ]},
    {"variant": "MGESLFKGPRDYNPISSSICHLTNESDGHTTSLYGIGFGPFIITNKHLFRRNNGTLVVQSLHGVFKVKDTTTLQQHLVDGRDMIIIRMPKDFPPFPQKLKFREPQREERICLVTTNFQHKSMSSMVSDTSCTFPSGDGIFWKHWIQTKDGQCGSPLVSTRDGFIVGIHSASNFTNTNNYFTSVPKNFMELLTNQEAQQWVSGWRLNADSVLWGGHKVFMVKPEEPFQPVKEATQL", "note": "[T119H]", "values": [
      {"measurement": "area with substrate ENLDFQS", "result": 0.0651},
      {"measurement": "area with substrate ENLEFQS", "result": 0.0771},
      {"measurement": "area with substrate ENLFFQS", "result": 0.0814},
      {"measurement": "area with substrate ENLHFQS", "result": 0.0701},
      {"measurement": "area with substrate ENLKFQS", "result": 0.103},
      {"measurement": "area with substrate ENLMFQS", "result": 0.0874},
      {"measurement": "area with substrate ENLQFQS", "result": 0.082},
      {"measurement": "area with substrate ENLSFQS", "result": 0.0527},
      {"measurement": "area with substrate ENLVFQS", "result": 0.0857}
    ]},
    {"variant": "MGESLFKGPRDYNPISSSICHLTNESDGHTTSLYGIGFGPFIITNKHLFRRNNGTLVVQSLHGVFKVKDTTTLQQHLVDGRDIIIIRMPKDFPPFPQKLKFREPQREERICLVTTNFQTKSMSSMVSDTSCTFPSGDGIFWKHWIQTKDGQCGSPLVSTRDGFIVGIHSASNFTNTNNYFTSVPKNFMELLTNQEAQQWVSGWRLNADSVLWGGHKVFMVKPEEPFQPVKEATQL", "note": "[M83I]", "values": [
      {"measurement": "area with substrate ENLDFQS", "result": 0.0716},
      {"measurement": "area with substrate ENLFFQS", "result": 0.0751},
      {"measurement": "area with substrate ENLIFQS", "result": 0.0854},
      {"measurement": "area with substrate ENLKFQS", "result": 0.0681},
      {"measurement": "area with substrate ENLLFQS", "result": 0.0505},
      {"measurement": "area with substrate ENLNFQS", "result": 0.0683},
      {"measurement": "area with substrate ENLPFQS", "result": 0.0629},
      {"measurement": "area with substrate ENLRFQS", "result": 0.0703},
      {"measurement": "area with substrate ENLWFQS", "result": 0.0675}
    ]},
    {"variant": "MGESLFKGPRDYNPISSSICHLTNESDGHTTSLYGIGFGPFIITNYHLFRRNNGTLVVQSLHGVFKVKDTTTLQQHLVDGRDMIIIRMPKDFPPFPQKLKFREPQREERICLVTTNFQTKSMSSMVSDTSCTFPSGDGIFWKHWIQTKDGQCGSPLVSTRDGFIVGIHSASNFTNTNNYFTSVPKNFMELLTNQEAQQWVSGWRLNADSVLWGGHKVFMVKPEEPFQPVKEATQL", "note": "[K46Y]", "values": [
      {"measurement": "area with substrate ENLDFQS", "result": 0.0687},
      {"measurement": "area with substrate ENLEFQS", "result": 0.0667},
      {"measurement": "area with substrate ENLFFQS", "result": 0.0496},
      {"measurement": "area with substrate ENLHFQS", "result": 0.0381},
      {"measurement": "area with substrate ENLNFQS", "result": 0.0592},
      {"measurement": "area with substrate ENLPFQS", "result": 0.0936},
      {"measurement": "area with substrate ENLQFQS", "result": 0.0522},
      {"measurement": "area with substrate ENLRFQS", "result": 0.0583},
      {"measurement": "area with substrate ENLSFQS", "result": 0.0464},
      {"measurement": "area with substrate ENLVFQS", "result": 0.0524},
      {"measurement": "area with substrate ENLWFQS", "result": 0.0729}
    ]},
    {"variant": "MGESLFKGPRDYNPISSSICHLTNESDGHTTSLYGIGFGPFIITNKHLFRRNNGTLVVQSLHGVFKVKDTTTLQQHLVDGRDMIIIRMPKDAPPFPQKLKFREPQREERICLVTTNFQTKSMSSMVSDTSCTFPSGDGIFWKHWIQTKDGQCGSPLVSTRDGFIVGIHSASNFTNTNNYFTSVPKNFMELLTNQEAQQWVSGWRLNADSVLWGGHKVFMVKPEEPFQPVKEATQL", "note": "[F92A]", "values": [
      {"measurement": "area with substrate ENLDFQS", "result": 0.0574},
      {"measurement": "area with substrate ENLEFQS", "result": 0.0701},
      {"measurement": "area with substrate ENLFFQS", "result": 0.0791},
      {"measurement": "area with substrate ENLIFQS", "result": 0.0824},
      {"measurement": "area with substrate ENLKFQS", "result": 0.0696},
      {"measurement": "area with substrate ENLNFQS", "result": 0.0574},
      {"measurement": "area with substrate ENLRFQS", "result": 0.0687},
      {"measurement": "area with substrate ENLSFQS", "result": 0.0661}
    ]}
  ]
}
